Measured values as given in PubChem BioAssay AID720708 (National Center for Advancing Translational Sciences (NCATS), 2013).
Screen size: about 360,000 compounds; about 660 (0.18%) were called active. Inconclusive means that the source gave no clear call. Such entries were picked first, then a sample of the others. Calls come from the whole dose curve; as a rule, active = well fitted inhibition curve with a large enough effect; inconclusive = small, poorly fitted or top-dose-only effect; inactive = no such curve, though single readings can be large or run the other way. No potency is given beside an inconclusive call; the fits are too rough.

target: Rap guanine nucleotide exchange factor 4 (Homo sapiens) (UniProt Q8WZA2); experiment: qHTS for Antagonist of cAMP-regulated guanine nucleotide exchange factor 2 (EPAC2): primary screen; conditions: EPAC2 GEF exchange of Rap1B-BODIPY-GDP, fluorescence; activity, negative = inhibition: at 114 µM (top of the series) unless noted; note: nearly all actives have a fitted effect of over 45% in size
% is set by controls: 0 for no effect and ±100 for the full control effect; potency is the fitted concentration of half-maximal effect; tags give direction and shape of the fitted curve.

Chain of UniProt Q8WZA2 (Q8WZA2 whole entry, looked up): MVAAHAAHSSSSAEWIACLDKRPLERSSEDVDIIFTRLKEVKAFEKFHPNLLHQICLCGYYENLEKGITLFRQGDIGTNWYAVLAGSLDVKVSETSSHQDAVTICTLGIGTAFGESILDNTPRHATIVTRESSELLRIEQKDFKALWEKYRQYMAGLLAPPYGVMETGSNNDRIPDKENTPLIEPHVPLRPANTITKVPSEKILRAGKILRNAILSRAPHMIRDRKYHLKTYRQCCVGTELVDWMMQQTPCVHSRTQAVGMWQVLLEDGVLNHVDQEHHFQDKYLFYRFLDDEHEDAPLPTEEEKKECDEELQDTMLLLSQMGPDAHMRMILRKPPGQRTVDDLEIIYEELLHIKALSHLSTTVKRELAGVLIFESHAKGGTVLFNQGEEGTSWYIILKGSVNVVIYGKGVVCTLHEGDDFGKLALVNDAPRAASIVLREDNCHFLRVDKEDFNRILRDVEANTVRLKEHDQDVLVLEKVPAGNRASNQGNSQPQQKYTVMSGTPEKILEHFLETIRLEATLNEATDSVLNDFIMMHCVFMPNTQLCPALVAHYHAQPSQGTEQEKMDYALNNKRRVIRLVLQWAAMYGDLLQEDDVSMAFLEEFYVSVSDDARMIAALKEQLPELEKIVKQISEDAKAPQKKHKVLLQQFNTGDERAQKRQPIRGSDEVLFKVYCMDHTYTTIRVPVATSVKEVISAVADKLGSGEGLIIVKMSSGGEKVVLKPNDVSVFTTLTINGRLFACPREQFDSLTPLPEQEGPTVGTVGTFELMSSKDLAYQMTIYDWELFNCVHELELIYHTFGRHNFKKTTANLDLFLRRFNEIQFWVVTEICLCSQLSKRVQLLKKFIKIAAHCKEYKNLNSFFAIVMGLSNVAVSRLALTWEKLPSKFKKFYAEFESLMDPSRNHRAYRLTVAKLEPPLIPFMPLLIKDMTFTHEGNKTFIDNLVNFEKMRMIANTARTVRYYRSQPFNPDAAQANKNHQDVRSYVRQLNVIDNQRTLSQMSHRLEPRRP

Which Potency does the source give for Cc1ccc(-c2nn(-c3ccccc3)cc2C(=O)Nc2ccc(C(=O)O)cc2)cc1 here?
The Potency was “inactive”.

With COc1cccc(-n2c(C)nc3c(cnn3-c3ccc(C)cc3)c2=O)c1 as the compound, how does the Potency read?
Its Potency is “inactive”.

How did the Potency turn out when Cn1c(Oc2ccc(F)cc2F)c(C=O)c2ccccc21 was run?
Its Potency is inconclusive [inhibitor, single point].

CC(C)(C)OC(=O)Nc1ccccc1-n1nnnc1C(C(=O)c1ccc(F)cc1)N1CCN(c2ccccn2)CC1 (centres undefined) was tested. Which Potency did it give?
Its Potency is “inactive”.

COC(=O)C1=C(C(=O)OC)[C@@H]2N(Cc3ccccc3)c3ccccc3[C@@]23C[C@@H](C(=O)OC)N=C3N1 was tested. Which Potency did it give?
Its Potency is inconclusive [inhibitor, full curve].

For Cc1cc(C=C2C(=O)c3ccccc3C2=O)c(C)n1-c1cccc(C(=O)O)c1, which Potency is on record?
The Potency was inconclusive [inhibitor, partial curve].

With C=CCNc1cc(F)ccc1S(=O)(=O)NCC=C as the compound, how does the Potency read?
Its Potency is inconclusive [inhibitor, partial curve].

For CC1=C(C(=O)N(C(C)C)C(C)C)CC(CC(=O)NC2CCCC2)C(=O)N1CCC1=CCCCC1 (centres undefined), which Potency is on record?
Its Potency is inconclusive [inhibitor, single point].

For CCCC(O)(c1ccc(OC)cc1)C(CN1CCOCC1)c1ccc(Cl)cc1 (centres undefined), which Potency is on record?
Its Potency is inconclusive [inhibitor, partial curve].

For COc1ccc(C(=O)Nc2ccccc2C(=O)O)cc1NC(=O)C(c1ccccc1)c1ccccc1, which Potency is on record?
Its Potency is inconclusive [inhibitor, partial curve].

Which Potency does the source give for O=S(=O)(NCC1CC1)c1cc(Cl)cc(Cl)c1 here?
Its Potency is “inactive”.

For CCN1CCN(c2ccc(S(=O)(=O)N3CCOCC3)cc2NC(=O)/C=C/c2ccc([N+](=O)[O-])cc2)CC1, which Potency is on record?
Its Potency is inconclusive [inhibitor, full curve].

Which Potency does the source give for O=C1C(=O)c2cccnc2-c2ncccc21 here?
The Potency was inconclusive [inhibitor, full curve, poor fit].

How did the Potency turn out when Cc1ccc(CSC2=NCCN2S(=O)(=O)c2ccc(F)cc2)cc1 was run?
Its Potency is active: 50.1 µM.

COc1ccc(C2SCC(=O)N2Cc2ccccc2)cc1 (centres undefined) was tested. Which Potency did it give?
The Potency was inconclusive [inhibitor, partial curve].

CCN=C1S/C(=C\c2ccc(-c3cccc(C(=O)O)c3)o2)C(=O)N1CC was tested. Which Potency did it give?
Its Potency is inconclusive [inhibitor, partial curve].

Which Potency does the source give for COc1ccc(NC(=O)c2cc(C3CC3)nc3c2cnn3C(C)C)cc1OC here?
The Potency was inconclusive [inhibitor, partial curve].

How did the Potency turn out when Cc1ccc(-c2[nH]ncc2C(=O)c2ccc(Br)cc2)c(O)c1 was run?
The Potency was inconclusive [inhibitor, partial curve].

How did the Potency turn out when CC(C)c1ccc(CNc2ncccn2)cc1 was run?
Its Potency is “inactive”.

With Cc1c(Cl)sn(-c2ccc(Cl)cc2)c1=O as the compound, how does the Potency read?
The Potency was “inactive”.

Which Potency does the source give for CCCCNC(=O)C(NC(=O)c1ccc(-c2ccccc2)cc1)C(=O)c1ccccc1 (centres undefined) here?
Its Potency is “inactive”.

Which Potency does the source give for C=CCc1ccc(OC(=O)c2ccccc2)c(OC)c1 here?
The Potency was inconclusive [inhibitor, full curve].

With COC(CNC(=O)CN1CCN(Cc2ccccc2F)C1=O)OC as the compound, how does the Potency read?
Its Potency is “inactive”.

With CCCN(CCC)Cc1cc(=O)oc2cc(OC)c(Cl)cc12 as the compound, how does the activity, negative = inhibition read?
The activity, negative = inhibition was inconclusive: -32.3% [inhibitor].

How did the Potency turn out when CCOC(=O)c1c(C)n(S(=O)(=O)c2ccc(C)cc2)c2ccc(O)c(C(=O)O)c12 was run?
Its Potency is “inactive”.

With CC(=O)C1=C(O)C(=O)N(c2ccc(Br)cc2)C1c1ccc(Cl)cc1 (centres undefined) as the compound, how does the Potency read?
The Potency was inconclusive [inhibitor, partial curve].

For CCN(CC)S(=O)(=O)c1cccc(NC(=O)COC(=O)CNC(=O)c2cccc(F)c2)c1, which Potency is on record?
Its Potency is inconclusive [inhibitor, single point].

For Cc1ccc(C(C)(C)C)cc1S(=O)(=O)Nc1nc2ccccc2nc1Cl, which Potency is on record?
Its Potency is inconclusive [inhibitor, partial curve].

How did the Potency turn out when COc1ccc([C@H]2CC(=O)C=C(c3c(C)cc(C)cc3C)C2)cc1 was run?
Its Potency is inconclusive [inhibitor, full curve, poor fit].

How did the Potency turn out when Fc1ccccc1-c1cc2ccccc2cn1 was run?
Its Potency is inconclusive [inhibitor, full curve, poor fit].

O=C(Cc1ccc(Cl)cc1)OCc1nnc(-c2ccccc2)o1 was tested. Which Potency did it give?
The Potency was inconclusive [inhibitor, partial curve].

With C#CCOCCOCCOCCNc1nc(N2CCN(C(=O)CCCCCCCCCCNC(=O)[C@H](CCCCN)n3cc(C[C@@H](C)CC)nn3)CC2)nc(N2CCN(C(=O)CCCCCCCCCCNC(=O)[C@H](CCCN=C(N)N)n3cc(C[C@@H](C)CC)nn3)CC2)n1 as the compound, how does the Potency read?
The Potency was inconclusive [inhibitor, single point].

Which Potency does the source give for CCCCCCSc1ccc(-c2nc3cnccn3c2NCCCC)cc1 here?
Its Potency is “inactive”.

For Cc1nc2ccccc2c(=O)n1/N=C/c1ccc(O)c(O)c1O, which Potency is on record?
Its Potency is “inactive”.

Which Potency does the source give for Cc1noc(C)c1C(=O)N1CCC1(C)C(=O)NS(=O)(=O)c1cccs1 (centres undefined) here?
The Potency was “inactive”.

For CCCc1c(C)c2cccc(C)c2[nH]c1=O, which Potency is on record?
Its Potency is “inactive”.

Which Potency does the source give for CCOC(=O)C(=CNNc1ccccc1)C(=O)OCC here?
The Potency was “inactive”.

For COc1cc(Cc2cnc(N)nc2N)cc(OC)c1OC, which Potency is on record?
The Potency was inconclusive [inhibitor, single point].

How did the Potency turn out when CC1(Cc2ccccc2OC(F)(F)F)C(=O)Nc2ccc(-c3ccsc3)cc21 (centres undefined) was run?
The Potency was inconclusive [inhibitor, partial curve].

How did the Potency turn out when O=C1C=C(Nc2cccnc2)c2ccccc2C1=O was run?
Its Potency is inconclusive [inhibitor, single point].

With O=C(NS(=O)(=O)c1ccc2ccc(S(=O)(=O)NCCSc3ccccc3)cc2c1)c1cccc2ccccc12 as the compound, how does the Potency read?
The Potency was inconclusive [inhibitor, partial curve].

Which Potency does the source give for Cc1ccc(N=Cc2cc(Cc3ccccc3Cl)cc([N+](=O)[O-])c2O)c(O)c1 here?
Its Potency is inconclusive [inhibitor, partial curve].

How did the Potency turn out when CCCCOc1ccc(C(=O)N(C)CC(=O)Nc2ccc(C)cc2)cc1 was run?
Its Potency is “inactive”.

How did the Potency turn out when COCn1c(C(O)c2ccccc2)cc2ccccc21 (centres undefined) was run?
Its Potency is inconclusive [inhibitor, partial curve].
